In US20200196599A1 (priority 2018, published 2020):
Read-outs that look alike come from different tables or passages of the source.

Legend:
[1] = tested on: PIN2:GFP exocytic trafficking from BFA compartments; assay: BFA washout: recovery of PIN2:GFP from BFA-induced compartments; settings: 40 μM BFA 60 min, then 80 minutes of recovery with 40 μM compound
Arabidopsis seedlings = settings: in vivo
MoEXO70 = type: binding, M. oryzae; settings: 400 μM compound, pronase 1:3000 and 1:10000 dilutions
M. oryzae [2] = type: cell-based, Magnaporthe oryzae
PIN2:GFP localization = assay: PIN2:GFP cellular localization (PVC compartments) in root epidermal cells; type: cell-based, Arabidopsis
From the text: To quantify the intracellular localized PIN2 after ES2 and analog 14 treatment, Z-stack images from treated cells were thresholded and the cell outline was drawn using polygon selection tool in ImageJ. The intracellular pre-vacuolar compartments that contain PIN2:GFP were quantified using Analyze Particle tool in selected cells using imageJ. The compartments that are less than 0.1 μm^2 were considered as background and were discarded. A total of 8 images from about 90 cells were quantified for each drug treatment.

BSA = BSA (Bos taurus, UniProt P02769); assay: DARTS assay, BSA internal control; type: binding; settings: 400 μM compound, BSA mixed with EXO70 protein
rExo70 in Hela cells = assay: Localization of GFP-rExo70 in Hela cells; type: cell-based; settings: 40 μM, 4 hours
From the text: ES2 is active in targeting mammalian EXO70s and it can inhibit the recycling of transferrin and localization of rExo70 to the plasma membrane (Zhang et al., 2016). Because analog 14 interacts with AtEXO70A1, we then assayed whether it could be used as an exocytosis inhibitor in mammalian cells by testing its effects on the localization of GFP-rExo70 in Hela cells. […] Therefore, minor changes in ES2 structure could affect its specificity in targeting EXO70s in different organisms.
The cells were treated with 40 μM ES2 or analog 14 for 4 hours and the localization of rEXO70 and Rab8 was detected using Leica DMI6000 microscope.

GFP-BcEXO70 = GFP-BcEXO70 (Botrytis cinerea, UniProt A0A384JDU6); assay: biochemical; type: binding, B. cinerea
M. oryzae [3] = type: in vivo, Magnaporthe oryzae; settings: 80 μM in spore suspension, 6 days post-inoculation
SUMO-GFP = assay: MST negative control with SUMO-GFP; type: binding
BcEXO70 = type: binding, B. cinerea
B. cinerea [4] = type: in vivo, Botrytis cinerea; settings: 80 μM in spore suspension, versus DMSO control
[5] = tested on: HDEL, GOP1p, VHA-a1, ROP6, PIP2a and PGP4; type: cell-based, Arabidopsis
M. oryzae [6] = type: cell-based, Magnaporthe oryzae; settings: CM medium, 12 days
AtEXO70A1 = molecular target: T1, AtEXO70A1 (Arabidopsis thaliana, UniProt Q9LZD3); settings: read-out: Kd with AtEXO70A1 (MST); NT-647-labeled AtEXO70A1, 50 nM protein
T1 sequence (Q9LZD3 75-638 limits assumed): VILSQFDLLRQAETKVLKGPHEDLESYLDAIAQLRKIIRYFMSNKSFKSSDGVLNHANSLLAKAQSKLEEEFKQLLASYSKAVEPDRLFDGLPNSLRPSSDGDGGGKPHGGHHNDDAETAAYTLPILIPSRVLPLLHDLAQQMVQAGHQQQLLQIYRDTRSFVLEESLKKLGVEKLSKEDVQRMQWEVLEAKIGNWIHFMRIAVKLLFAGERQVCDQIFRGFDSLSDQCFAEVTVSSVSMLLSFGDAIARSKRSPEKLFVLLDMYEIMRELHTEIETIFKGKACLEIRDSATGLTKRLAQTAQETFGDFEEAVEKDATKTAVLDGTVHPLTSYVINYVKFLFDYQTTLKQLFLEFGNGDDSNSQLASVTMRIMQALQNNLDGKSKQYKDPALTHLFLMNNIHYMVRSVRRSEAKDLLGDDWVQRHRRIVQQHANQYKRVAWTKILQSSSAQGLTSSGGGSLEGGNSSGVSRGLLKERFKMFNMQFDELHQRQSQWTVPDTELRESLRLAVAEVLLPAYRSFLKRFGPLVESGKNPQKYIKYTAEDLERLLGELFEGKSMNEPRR

B. cinerea [7] = type: cell-based, Botrytis cinerea
plant growth = assay: Plant growth inhibition by Cellulosin and isoxaben; type: in vivo; settings: 3.5 nM isoxaben alone
[8] = different concentrations, 24 hours of incubation

| SMILES | average number of BFA-induced PIN2:GFP containing compartments [1] | growth / root length of Arabidopsis seedlings versus DMSO (Arabidopsis seedlings) | protection of MoEXO70 from degradation by pronase (MoEXO70) | effect on appressorium formation (M. oryzae [2]; [8]) | number of PVC compartments that contain PIN2:GFP (PIN2:GFP localization; 20 μM, 2 h) | protection of BSA from degradation by pronase (BSA) | effect on cellular localization of rExo70 (rExo70 in Hela cells) | lesions on rice leaves inoculated with M. oryzae spores (M. oryzae [3]) | interaction with SUMO-GFP (MST control) (SUMO-GFP) | protection of BcEXO70 from degradation by pronase (BcEXO70) | lesions on Arabidopsis leaves inoculated with B. cinerea spores (B. cinerea [4]) | also measured |
| --- | --- | --- | --- | --- | --- | --- | --- | --- | --- | --- | --- | --- |
| COc1cc(/C=N/NC(=O)c2cccc(F)c2)cc(I)c1O [ES2, endosidin2, reference compound] | approximately 0.65 per cell | No obvious differences in growth | did not significantly protect | limited effects | only a few PVC compartments that contained PIN2:GFP | not protected | reduced the localization of rExo70 to the plasma membrane | smaller lesions | did not interact | did not significantly protect | did not affect the development of lesions | effect on appressoria formation (M. oryzae [2]; 80 μM): only slightly inhibited; Kd (GFP-BcEXO70): 177 ± 170 µM |
| O=C(N/N=C/c1cc(I)c(O)c(I)c1)c1cccc(F)c1 [analog 14] | about 1 per cell | significantly shorter roots | protected | inhibitory to appressorium formation | significantly increased the number of PVC compartments | but not BSA | did not affect cellular localization of rExo70 | only limited necrosis | did not interact | protected | significantly reduced the lesion size | growth inhibition potency compared with ES2 (root length statistics) (Arabidopsis seedlings): more potent growth inhibitor than ES2; root elongation of Arabidopsis seedlings (Arabidopsis seedlings): failed to elongate at all; seedling size and root length versus same concentration of ES2 (Arabidopsis seedlings): significantly smaller and had shorter roots; effect on appressorium formation (M. oryzae [2]; 10 μM, 24 hours): significantly reduce appressorium formation; effect on appressorium formation (M. oryzae [2]; 40 or 80 μM, 24 hours): almost completely blocked; effect on localization of fluorescence-tagged organelle markers [5]: no obvious effects; concentration causing significant reduction in growth of M. oryzae (M. oryzae [6]): 10 µM; number of PVC compartments that contain PIN2:GFP (PIN2:GFP localization; 40 μM, 2 h or longer): further increased PVC with GFP fluorescence; Kd (GFP-BcEXO70; read-out: calculated Kd with GFP-BcEXO70 (MST), 50 nM protein): 6 ± 14 µM; Kd (AtEXO70A1): 255 ± 13 µM; concentration that significantly inhibited the growth rate of B. cinerea (B. cinerea [7]): ≥ 10 µM |
| CCC(C)(CC)c1cc(NC(=O)c2c(OC)cccc2OC)on1 [isoxaben] |  |  |  |  |  |  |  |  |  |  |  | effect on plant growth (plant growth): did not inhibit plant growth |
